# Measured values reported in the supplement of paper PMC3334620.
# Over roughly 33,000 sequences, “E-score (-0.5 to 0.5)” has its median near -0.01; the highest 2% begin near 0.26. Some of the results follow.
# Target: Ste12 (UniProt P13574)
# Assay: PBM E-score (8-mer binding enrichment) (E-score (-0.5 to 0.5)); higher = stronger / more preferred TF binding; most listed sequences are background and not binding sites
# Conditions: protein concentration: 200 nM; construct: GST-DNA-binding domain
# Protocol: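 Universal 'all 10-mer' protein binding microarrays (Agilent AMADID 015681) probed with GST-tagged S. cerevisiae TFs (full-length or DBD) made by in vitro transcription/translation (PURExpress), about 100-200 nM. Bound TF was detected with fluorescent anti-GST. Each ungapped 8-mer (which stands for itself and its reverse complement) is scored by the PBM enrichment score (E-score), a modified Wilcoxon-Mann-Whitney statistic from -0.5 to +0.5, computed with the Universal PBM Analysis Suite. Scale: above 0.35 generally sequence-specific binding.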
row,Sequence,PBM E-score
1,CGGACGCA,-0.0811
2,ATATTACG,0.154
3,CGTTAAGC,-0.0815
4,GGCTTACC,-0.101
5,AAAACACT,0.215
6,CTTCACTC,-0.0309
7,CTGTTGCA,0.193
8,AGACTGGC,-0.267
9,GCTATCTA,-0.126
10,ACCTCTTC,0.0129
11,AAAACGCC,0.099
12,GAGGGCCA,0.0172
13,TCCCAGCA,-0.0236
14,CATTGTGG,0.0722
15,ATTCATTA,0.24
16,CATCGTTA,0.022
17,GACCTCAC,-0.15
18,AACAGATT,0.146
19,CGGGTTTC,0.323
20,AAGCCGTG,-0.0165
21,AGGCCTAC,0.00818
22,ATATCCTG,-0.00091
23,CGGTTAAC,0.139
24,CGGTATAA,0.155
25,GTACTGGA,0.123

row,Sequence,PBM E-score
1,ACGTTGGA,-0.0164
2,AGTCCCGC,-0.149
3,CAGCCTTC,-0.172
4,GAACGTAA,-0.00641
5,CCCTAACA,0.223
6,AAGCTGTC,-0.159
7,GAGTCTGC,-0.232
8,AGGCATCG,-0.0261
9,ACCTGCGC,-0.0192
10,AGGGACGC,-0.155
11,AGAACGTC,-0.0105
12,GATTCTCA,-0.109
13,AACGAGAT,0.0103
14,AGGCCCTC,-0.0675
15,CCAAGTAC,-0.114
16,TACACTGA,0.173
17,GCCCTGAC,-0.129
18,ATGATTAA,0.156
19,TCACACGA,0.0776
20,ACAGACTG,0.0359
21,ACATTCGT,-0.131
22,AGTATCGG,-0.0389
23,GAAGCGAA,0.101
24,ATCGGCCG,-0.022
25,CTCCAATA,0.0856

row,Sequence,PBM E-score
1,CAATTAGG,0.112
2,ACAAAGGA,0.0509
3,AGACGTCG,-0.0691
4,GACGGTAA,0.0275
5,CACCTATA,0.0143
6,TAGCCGCA,-0.136
7,GTCATGGA,-0.0644
8,AAAGGACA,0.0164
9,CGGAAACC,0.032
10,ACAAATGC,0.0293
11,AGAAAACA,0.152
12,AACGGGGT,-0.0712
13,CACTGAGC,-0.00065
14,GTGAGAAC,-0.0923
15,ATTAATTC,0.308
16,AGGGATCA,-0.0394
17,AGCAACCC,-0.0729
18,CCCTCAAA,0.097
19,GTAAAGAC,-0.0181
20,CATGGACA,-0.161
21,CAGCTATG,-0.123
22,ATAATGTA,0.0922
23,CAGTGTTA,0.0761
24,AACAGGCG,-0.146
25,GCGTGGCA,-0.238

row,Sequence,PBM E-score
1,CCGCTTGA,0.0406
2,ACCCGACC,0.0321
3,GATCGACC,0.0331
4,TAGGGCAA,-0.184
5,CAGTCATA,-0.0119
6,AGTTTCTC,-0.0852
7,AAATGTAA,0.226
8,GGCCTGAA,0.0123
9,GGAAACCA,-0.103
10,ACTTGTCG,0.131
11,CAATCAAC,-0.0439
12,ACAGCGTA,-0.163
13,GAAGGACA,0.0925
14,ACTCTACG,-0.173
15,CATTCAGC,-0.183
16,AAGGGCAA,-0.0993
17,ATACCCCG,0.0945
18,AGTGACAG,-0.057
19,GATCAGAA,-0.151
20,CTACAAAG,-0.00734
21,CATGTCCA,0.0467
22,CTACCCAA,0.0898
23,GTCGCGCA,0.0427
24,GCGAGCCA,-0.0412
25,CAGATCGG,0.00447

row,Sequence,PBM E-score
1,CGTACAGC,-0.0963
2,ACTCTGCA,0.0406
3,ATTATTGG,-0.0199
4,GCTAAAGC,-0.25
5,CCTAGATC,-0.112
6,CCTCTTTA,-0.0691
7,GTAGTGTA,-0.104
8,ATGGACAT,-0.0353
9,AACCCATC,-0.0372
10,CCCGTAAG,-0.0733
11,ACCATTTC,0.0766
12,CAAAATAC,0.115
13,CCAATTGA,0.194
14,GCCCTCCC,0.115
15,AGCGATAT,0.168
16,ATGCACTA,-0.191
17,GTTATTCA,0.0838
18,GACCCAAA,0.164
19,CGCCACCC,-0.0137
20,GGCAAGAC,-0.24
21,TAAGTGAA,0.172
22,ATCACCTG,0.0378
23,CTGACGTA,-0.0644
24,CTCGGTGA,0.0422
25,AGGATCAC,-0.106

row,Sequence,PBM E-score
1,CCCTCAAG,-0.207
2,CAAAGAAC,0.147
3,ACCTCAAC,0.0358
4,CCATCAGA,0.0673
5,GTATAGAA,0.0347
6,AGTGATCG,-0.0719
7,ATGAACGG,0.0221
8,CTAGCGTC,-0.154
9,ACTGTATA,0.074
10,GGGTGAGA,-0.0699
11,CAGAAATG,0.0384
12,CGGTTCAG,-0.123
13,ACGCGATG,0.032
14,CCAGAAGA,0.0259
15,CCTTTCAA,-0.0319
16,GCGCAGAC,-0.168
17,CTCCCGAC,-0.102
18,AAGGCTTC,-0.146
19,ACAGCCCC,0.0486
20,CCTACAAG,-0.00719
21,GAGAGATA,0.132
22,ATGATAGA,0.159
23,CGACTCTA,-0.0794
24,CCCTGACC,0.00902
25,CACCACAG,-0.187

row,Sequence,PBM E-score
1,ACCAAACA,0.137
2,ACAGTAAT,0.1
3,TAAAATAA,0.269
4,CGGACTTC,-0.111
5,GCTCGACC,-0.107
6,TCGGTTCA,-0.136
7,CACCTATC,0.0217
8,CTACCGGA,-0.198
9,GGACAGTA,-0.00625
10,CACCTGAA,0.0275
11,CTGCTTTA,0.206
12,ATTCTGCG,-0.0262
13,AATCTGGC,-0.102
14,GATGCTCA,-0.113
15,AACGAGCG,-0.0261
16,AAGTCGCG,0.0702
17,GGAGTGGA,-0.114
18,CAACCTAA,0.0543
19,GAAAGGCA,0.0587
20,CCCTGGTA,-0.2
21,GTCGACGA,-0.0374
22,ACGGCGAA,0.0954
